# Assay results published in the supplement of paper PMC8728848.
# The list shows a part of the results.
# B1: F17-L (Escherichia coli) (protein)
# chain: GPDDYVPSQIAVNTSTLPGVVIGPADAHTYPRVIGELAGTSNQYVFNGGAIALMRGKFTPALPKIGSITYTFHQGNSRDSSDFDIYDIGVSGLGIIIGMAGYWPATPLVPINSSGIYIDPVGANTNPNTYNGATASFGARLFVAFVATGRLPNGYITIPTRQLGTILLEAKRTSLNNKGLTAPVMLNGGRIQVQSQTHHHHHH
# Columns and labels:
# Assay in all cases: glycan array binding signal (z-score within array); higher = stronger binding
# Settings in all cases: glycan notation: IUPAC condensed, linker removed
# [1] = target: Fuc(a1-2)Gal(b1-4)GlcNAc(b1-3)Gal(b1-4)GlcNAc(b1-3)Gal(b1-4)GlcNAc
# Procedure, shortened: (§1)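 Glycan array data were curated from 3228 arrays in the Consortium for Functional Glycomics database and kept only where the protein sequence was available. Glycan names were converted to IUPAC-condensed notation, and columns mapping to the same glycan were averaged. The binding signal is a within-array Z-score, averaged across arrays of the same protein sequence at different concentrations or buffers and across linkers. Negative Z-scores can be read as non-binding.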
# [2] = target: Fuc(a1-2)Gal(b1-4)GlcNAc(b1-3)GalNAc
# Procedure, shortened: as §1
# [3] = target: Fuc(a1-2)Gal(b1-4)GlcNAc(b1-3)[Fuc(a1-2)Gal(b1-4)GlcNAc(b1-6)]GalNAc
# Procedure, shortened: as §1
# [4] = target: Fuc(a1-2)Gal(b1-4)GlcNAc(b1-3)[Fuc(a1-3)[Gal(b1-4)]GlcNAc(b1-6)]Gal(b1-4)Glc
# Procedure, shortened: as §1
# [5] = target: Fuc(a1-2)Gal(b1-4)GlcNAc(b1-6)GalNAc
# Procedure, shortened: as §1
# [6] = target: Fuc(a1-2)Gal(b1-4)GlcNAc6S
# Procedure, shortened: as §1
# [7] = target: Fuc(a1-2)Gal(b1-4)[Fuc(a1-3)]GlcNAc
# Procedure, shortened: as §1
# [8] = target: Fuc(a1-2)Gal(b1-4)[Fuc(a1-3)]GlcNAc(b1-2)Man(a1-3)[Fuc(a1-2)Gal(b1-4)[Fuc(a1-3)]GlcNAc(b1-2)Man(a1-6)]Man(b1-4)GlcNAc(b1-4)[Fuc(a1-6)]GlcNAc
# Procedure, shortened: as §1
# [9] = target: Fuc(a1-2)Gal(b1-4)[Fuc(a1-3)]GlcNAc(b1-2)[Fuc(a1-2)Gal(b1-4)[Fuc(a1-3)]GlcNAc(b1-4)]Man(a1-3)[Fuc(a1-2)Gal(b1-4)[Fuc(a1-3)]GlcNAc(b1-2)Man(a1-6)]Man(b1-4)GlcNAc(b1-4)GlcNAc
# Procedure, shortened: as §1
# [10] = target: Fuc(a1-2)Gal(b1-4)[Fuc(a1-3)]GlcNAc(b1-3)Gal(b1-4)[Fuc(a1-3)]GlcNAc
# Procedure, shortened: as §1
# [11] = target: Fuc(a1-2)Gal(b1-4)[Fuc(a1-3)]GlcNAc(b1-3)Gal(b1-4)[Fuc(a1-3)]GlcNAc(b1-3)Gal(b1-4)[Fuc(a1-3)]GlcNAc
# Procedure, shortened: as §1
# [12] = target: Fuc(a1-2)Gal(b1-4)[Fuc(a1-3)]GlcNAc(b1-3)GalNAc
# Procedure, shortened: as §1
# [13] = target: Fuc(a1-2)Gal(b1-4)[Fuc(a1-3)]GlcNAc(b1-3)[Neu5Ac(a2-6)Gal(b1-4)GlcNAc(b1-6)]Gal(b1-4)Glc
# Procedure, shortened: as §1
# [14] = target: Fuc(a1-2)Gal3S(b1-4)GlcNAc
# Procedure, shortened: as §1
# [15] = target: Fuc(a1-2)Gal6S(b1-3)GlcNAc
# Procedure, shortened: as §1
# [16] = target: Fuc(a1-2)Gal6S(b1-3)GlcNAc6S
# Procedure, shortened: as §1
# Fuc(a1-2)Gal6S(b1-4)Glc = target: Fuc(a1-2)Gal6S(b1-4)Glc
# Procedure, shortened: as §1
# [17] = target: Fuc(a1-2)Gal6S(b1-4)Glc6S
# Procedure, shortened: as §1
# Fuc(a1-2)[Gal(a1-3)]Gal = target: Fuc(a1-2)[Gal(a1-3)]Gal
# Procedure, shortened: as §1
# [18] = target: Fuc(a1-2)[Gal(a1-3)]Gal(b1-3)GalNAc
# Procedure, shortened: as §1
# [19] = target: Fuc(a1-2)[Gal(a1-3)]Gal(b1-3)GalNAc(b1-3)Gal(a1-4)Gal(b1-4)Glc
# Procedure, shortened: as §1
# [20] = target: Fuc(a1-2)[Gal(a1-3)]Gal(b1-3)GlcNAc
# Procedure, shortened: as §1
# [21] = target: Fuc(a1-2)[Gal(a1-3)]Gal(b1-3)GlcNAc(b1-2)Man(a1-3)[Fuc(a1-2)[Gal(a1-3)]Gal(b1-3)GlcNAc(b1-2)Man(a1-6)]Man(b1-4)GlcNAc(b1-4)GlcNAc
# Procedure, shortened: as §1
# [22] = target: Fuc(a1-2)[Gal(a1-3)]Gal(b1-3)GlcNAc(b1-2)Man(a1-3)[Fuc(a1-2)[Gal(a1-3)]Gal(b1-3)GlcNAc(b1-2)Man(a1-6)]Man(b1-4)GlcNAc(b1-4)[Fuc(a1-6)]GlcNAc
# Procedure, shortened: as §1
# [23] = target: Fuc(a1-2)[Gal(a1-3)]Gal(b1-3)GlcNAc(b1-3)GalNAc
# Procedure, shortened: as §1
# [24] = target: Fuc(a1-2)[Gal(a1-3)]Gal(b1-3)GlcNAc(b1-6)GalNAc
# Procedure, shortened: as §1
# [25] = target: Fuc(a1-2)[Gal(a1-3)]Gal(b1-4)Glc
# Procedure, shortened: as §1
# [26] = target: Fuc(a1-2)[Gal(a1-3)]Gal(b1-4)GlcNAc
# Procedure, shortened: as §1
# [27] = target: Fuc(a1-2)[Gal(a1-3)]Gal(b1-4)GlcNAc(b1-2)Man
# Procedure, shortened: as §1
# [28] = target: Fuc(a1-2)[Gal(a1-3)]Gal(b1-4)GlcNAc(b1-2)Man(a1-3)[Fuc(a1-2)[Gal(a1-3)]Gal(b1-4)GlcNAc(b1-2)Man(a1-6)]Man(b1-4)GlcNAc(b1-4)GlcNAc
# Procedure, shortened: as §1
binder,measurement,setting,value
B1,glycan array binding signal (z-score),[1],-0.056
same,glycan array binding signal (z-score),[2],0.006
same,glycan array binding signal (z-score),[3],-0.132
same,glycan array binding signal (z-score),[4],-0.151
same,glycan array binding signal (z-score),[5],0.014
same,glycan array binding signal (z-score),[6],-0.085
same,glycan array binding signal (z-score),[7],-0.184
same,glycan array binding signal (z-score),[8],-0.049
same,glycan array binding signal (z-score),[9],-0.199
same,glycan array binding signal (z-score),[10],-0.066
same,glycan array binding signal (z-score),[11],-0.129
same,glycan array binding signal (z-score),[12],-0.092
same,glycan array binding signal (z-score),[13],-0.136
same,glycan array binding signal (z-score),[14],-0.201
same,glycan array binding signal (z-score),[15],-0.091
same,glycan array binding signal (z-score),[16],0.024
same,glycan array binding signal (z-score),Fuc(a1-2)Gal6S(b1-4)Glc,-0.156
same,glycan array binding signal (z-score),[17],0.046
same,glycan array binding signal (z-score),Fuc(a1-2)[Gal(a1-3)]Gal,-0.103
same,glycan array binding signal (z-score),[18],-0.174
same,glycan array binding signal (z-score),[19],-0.026
same,glycan array binding signal (z-score),[20],-0.17
same,glycan array binding signal (z-score),[21],-0.111
same,glycan array binding signal (z-score),[22],-0.039
same,glycan array binding signal (z-score),[23],-0.097
same,glycan array binding signal (z-score),[24],-0.134
same,glycan array binding signal (z-score),[25],-0.117
same,glycan array binding signal (z-score),[26],-0.065
same,glycan array binding signal (z-score),[27],0.196
same,glycan array binding signal (z-score),[28],0.019
